{"source": "paper PMC12136788", "binders": {"B1": {"name": "chr22:31279490:31279591:+|3pUTR|ENSG00000182541|msi1|FALSE|unique (ssRNA)", "RNA": "GGGAGUUCUACAGUCCGACGAUCAGCAGCUUGGGCUGGGAAGAGGUGGUGGCAGAGUCUCAAAGCUGAGAUGCUGAGAGAGAUAGCUCCCUGAGCUGGGCCAUCUGACUUCUACCUCCCAUGUUUGCUCUCCCAACUCAUUAGCAACAGAGGAUUGAGCAUCA"}, "B2": {"name": "chr3:133826890:133826991:-|3pUTR|ENSG00000154917|unk|total|mutant (ssRNA)", "RNA": "GGGAGUUCUACAGUCCGACGAUCUUUGAACGUGUUUCAGAUGUCAUGUGUUCCGUUUUUAUAUGUGUGUACAUAAUUAUAUACCGAGACCGACUUGUGUAUACACCUUCCACAAACACAUCCUCACGGAGAUACAUGUGCUCACAACAGAGGAUUGAGCAUCA"}, "B3": {"name": "chr9:15474029:15474130:-|CDS|ENSG00000164985|unk|total|mutant (ssRNA)", "RNA": "GGGAGUUCUACAGUCCGACGAUCAAGAAAAGAGCCGGAUAAAAAAGAGGGGAAGAAAGAAGUUGAAUCAAAAAGGAAAAAUUCCGCUAAAACAGGGGUUACUUCAACCUCCGAUUCUGAAGAAGAAGGAGAUGAUCAAGAAGGCAACAGAGGAUUGAGCAUCA"}, "B4": {"name": "chr10:15513953:15517157:-|three_prime_utr|ENSG00000077943|control|control|control (ssRNA)", "RNA": "GGGAGUUCUACAGUCCGACGAUCUAAGUUGCAGUCCAGAUCAAUCCAGCAUAAGUUGCAGAGAUGAAAUGUCUGAAUCACUAUAGAAUUUACAAGGUGAACUAAGGUGAAAUGACUGAUUUACUAUAGAACUUAGAACUAAGACAACAGAGGAUUGAGCAUCA"}, "B5": {"name": "chr1:51919672:51919773:-|3pUTR|ENSG00000169213|unk|FALSE|unique (ssRNA)", "RNA": "GGGAGUUCUACAGUCCGACGAUCUAUUCUUUGCCUGCCCCUGGGGUUCUCUGCAGAUGGUCCCAGUAAUAGAUACUCAGCACUAGACUAACAUAACAGGUCACUACACGGGUGCAGAAUCACUUUACAAAAGAAGACUCUGUUCAACAGAGGAUUGAGCAUCA"}, "B6": {"name": "chr13:35475095:35475222:-|CDS|ENSG00000180660|unk|FALSE|unique (ssRNA)", "RNA": "GGGAGUUCUACAGUCCGACGAUCGCUGCAACUUAUCUCCUGCCUGCAGUGCCGGCGGUGUCCCCACUACUUUCUACCGAACUUAGAUCUGUUUCAAGGCAAACCUCACUCAGCUCUGGAAAACGCUGCCAAACAAACGUGGCGCAACAGAGGAUUGAGCAUCA"}, "B7": {"name": "chr8:23842656:23842757:-|3pUTR|ENSG00000159167|msi1|FALSE|unique (ssRNA)", "RNA": "GGGAGUUCUACAGUCCGACGAUCCCCCAAACUUAUGGACACUGCCUUAGCCUCUUGGAAAUCAGGUAGACCAUAUUCUAAGUUAGACUCUUCCCCUCCCUCCCACACUUCCCACCCCCAGGCAAGGCUGACUUCUCUGAAUCACAACAGAGGAUUGAGCAUCA"}, "B8": {"name": "chr15:99715702:99716401:-|three_prime_utr|ENSG00000183060|control|control|control (ssRNA)", "RNA": "GGGAGUUCUACAGUCCGACGAUCUGUUGACUACAAACAUUUACCAAAUACAUAAAUCUCUUUUAAAAAAGCCAUUUUAAAUAUAGCAAAGCAGUGUCUUCUUGCACAGCAAAGUGAAGAAAGUUUCUACAGAGAAAUAGAAGUCAACAGAGGAUUGAGCAUCA"}, "B9": {"name": "ENSG00000107863:be:win_1201|CDS|ENSG00000107863|bound_else_gene|NA|bound_elsewhere_windowed (ssRNA)", "RNA": "GGGAGUUCUACAGUCCGACGAUCUUGCACAUAGGUUGUCGGACAAUACAAGAAAGAUUAGAUAGUUUAAGAGCAGCAUCUCAAAGCACGACAGAUUAUAACCAGGUCGUCCCCAACCGCACUACUUUGCAGGGACGACGUCGACAACAGAGGAUUGAGCAUCA"}, "B10": {"name": "chrX:74591538:74591767:-|CDS|ENSG00000131263|unk|total|mutant (ssRNA)", "RNA": "GGGAGUUCUACAGUCCGACGAUCUUGCCCUUCCUCCGCCUGGCUCAGUUUUUCCUCUUAAAUGAGGAUGAUGAUGACCAACCCCGAGGACUCACCAAAGAACAGAUUGACAACUUGGCAAUGAGAAGUUUUGGUGAAAAUGAUCAACAGAGGAUUGAGCAUCA"}, "B11": {"name": "chr12:106239179:106239280:-|CDS|ENSG00000136026|msi1|total|mutant (ssRNA)", "RNA": "GGGAGUUCUACAGUCCGACGAUCGGACCAAGCCCAGGCCGCCCGUCUGCCUCCUCAGGACUUCCUGGACAGACUUUCUUCUCCCGACAACCUGAAAGCCUCAGUCAGCCAAGUGGAGGCGGACUUGAAAAUGCUCAGGACUGCCAACAGAGGAUUGAGCAUCA"}, "B12": {"name": "ENSG00000162063:stop:overlap|stop_codon|ENSG00000162063|stop_codon|NA|stop_codon (ssRNA)", "RNA": "GGGAGUUCUACAGUCCGACGAUCUGCGGCACUGCACCAAGGAGCCCCCGAGCGCUGAGAGCCCACACCCCGUCCCGGCUGUCUAGGUCCCCACUGUGGUGGAUUACAAGGAGGUCCUGCUGACGCUAGUCCCUGUGGAGCUGACAACAGAGGAUUGAGCAUCA"}, "B13": {"name": "ENSG00000107863:be:win_4451|CDS|ENSG00000107863|bound_else_gene|NA|bound_elsewhere_windowed (ssRNA)", "RNA": "GGGAGUUCUACAGUCCGACGAUCGCACGACAAAAGAUGAAAAGAUAUCACUAGGAAAAGAGAGCACGCCUUCUGAAGAACCCUCACCACCACACAACUCAAAACACAACAAGUCACCAACUCUCAGCUGUCGCUUUGCCAUCCCAACAGAGGAUUGAGCAUCA"}, "B14": {"name": "chr7:139716074:139716127:-|CDS|ENSG00000064393|msi1_unk|total|mutant (ssRNA)", "RNA": "GGGAGUUCUACAGUCCGACGAUCGAAGCAAAACAAGUUCCGCCCCUUGCCCCUCAAAUACAUUCGCCCAGUUCUCCAGCAGGCCGCCACAGCCCUGAUGAAACUCAAAAGCCCCGGUCUUAUCCACGCUGACCUCAAACCAGACAACAGAGGAUUGAGCAUCA"}, "B15": {"name": "chrX:56565067:56565173:+|CDS|ENSG00000188021|unk|total|mutant (ssRNA)", "RNA": "GGGAGUUCUACAGUCCGACGAUCAGAAGCAUGAUGCAGUCGCUGAGCCAGAAUCCAGAUUUGGCUGCACAGAUGAUGCUGAACCGCCCGCUGUUUACUGCAAAUCCUCAGCUGCAGGAGCAGAUGCGGCCACAGCUCCCAGCCCAACAGAGGAUUGAGCAUCA"}, "B16": {"name": "chr5:75360489:75360590:+|3pUTR|ENSG00000113161|msi1|FALSE|unique (ssRNA)", "RNA": "GGGAGUUCUACAGUCCGACGAUCGCUCUUUCAGAGAGGUCUCAGGUUCUUUCCAUGCAGACUCCUCAGAUCUGAACACAGUUUAGUGCUUUACAUGCUGUGCUCUUUGAAGAGAUUUCAACAAGAAUAUUGUAUGUUAAAGCACAACAGAGGAUUGAGCAUCA"}, "B17": {"name": "chr2:11642538:11642650:+|3pUTR|ENSG00000196208|unk|FALSE|unique (ssRNA)", "RNA": "GGGAGUUCUACAGUCCGACGAUCCGAAGAGUUGAUGUCAAUCUUUUUUUCCUAAGAAAAAAAGUCCGCGAGUAUUAAAUAUUUAGAUCAAUGUUUAUAAAAUGAUUACUUUGUAUAUCUCAUUAUUCCUAUUUUGGAAUAAAACAACAGAGGAUUGAGCAUCA"}, "B18": {"name": "chr1:211748167:211748268:-|3pUTR|ENSG00000123684|msi1|total|mutant (ssRNA)", "RNA": "GGGAGUUCUACAGUCCGACGAUCGUACUGCAUCAGUGAGAUGAGCCGGGUUUUUGUUUGGGAUUGUAAGACUAUUAAGAUCCCCGUAAGUCAGUGGCCGUUUACUGUGAUGUGAGCAUUGCCGAUUCCCCCGUUGUCACUAAUCAACAGAGGAUUGAGCAUCA"}, "B19": {"name": "chr3:170361105:170361226:+|CDS|ENSG00000136603|unk|total|mutant (ssRNA)", "RNA": "GGGAGUUCUACAGUCCGACGAUCAAGCUCAUUGGCCCAGUUAAAGGAAACUGGCAGUGCCUUUGAAGUGGAGCAUGAAUGCCCCGGCAAAUGUCAGGGUUUAUUUGCACCCCAGUUUUAUGUUCAGCCUGAUGCUCCGUGUAUCAACAGAGGAUUGAGCAUCA"}, "B20": {"name": "chr7:88283957:88284065:-|CDS|ENSG00000127954|unk|total|mutant (ssRNA)", "RNA": "GGGAGUUCUACAGUCCGACGAUCCAGUGGUGCAGAAGUCUUGAGCUAUUCAGAAGCAGCCAAGAAGUCUGGCAUCAUAAUCACCGCAAUCCACAGAGAGCAUUAUGAUUUUCUCACAGAAUUAACUGAGGUUCUCAAUGGAAACAACAGAGGAUUGAGCAUCA"}, "B21": {"name": "chr12:108783210:108783311:-|3pUTR|ENSG00000084112|msi1|total|mutant (ssRNA)", "RNA": "GGGAGUUCUACAGUCCGACGAUCUGUUUAUCCUGCUAUGCAGUUUUACAUUGUGUGUUCACAUCUAUUCCAAGGAGCCUUGCCCGAAACAACACUGGCGGUUCCUGCAGGCCAGGCAGGCAUUGGCCCAUGCUGUGUCCCAUACAACAGAGGAUUGAGCAUCA"}, "B22": {"name": "chr16:56429670:56429771:-|3pUTR|ENSG00000167005|msi1|FALSE|unique (ssRNA)", "RNA": "GGGAGUUCUACAGUCCGACGAUCCAAUCACUGAGACUGCAUCAGAGUUUGCAAUUUUGUAUGUUUCAUUGCCAAAGAAGGCUUAGUGGUUGUUGACUGUAGUAUAAGUCAGCUUUCUGUAGCAUAAGAUUUGAUUUUCCCAUACAACAGAGGAUUGAGCAUCA"}}, "note": "Some of the results follow."}
{"biological_target": "T1, UNK ZnF1-6 (called full-length) (human, UniProt Q9C0B0 30-357)", "T1 sequence": "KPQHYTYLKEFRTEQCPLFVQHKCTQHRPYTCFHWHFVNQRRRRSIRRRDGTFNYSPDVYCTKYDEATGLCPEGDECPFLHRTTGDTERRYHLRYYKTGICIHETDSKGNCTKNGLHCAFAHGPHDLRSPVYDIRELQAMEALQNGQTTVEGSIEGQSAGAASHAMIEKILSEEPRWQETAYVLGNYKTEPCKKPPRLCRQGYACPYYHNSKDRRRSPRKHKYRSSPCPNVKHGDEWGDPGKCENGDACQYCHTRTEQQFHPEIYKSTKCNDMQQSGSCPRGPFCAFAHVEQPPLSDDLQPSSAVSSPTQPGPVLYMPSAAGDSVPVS", "assay": "nsRBNS (natural sequence RNA bind-n-seq); RBNS binding buffer (assumed for nsRBNS): 25 mM Tris pH 7.5, 150 mM KCl, 3 mM MgCl2, 0.01% Triton X-100, 500 ug/ml BSA, 20 U/ml SUPERase-In, 4 C; UNK is unkempt and MSI1 is Musashi-1; names of the RNAs are library labels; protein concentration not given here; high values mean tight binding", "units": {"binding signal": "enrichment R"}}
{"binder": "B1", "binding signal": 0.852}
{"binder": "B2", "binding signal": 0.302}
{"binder": "B3", "binding signal": 0.66}
{"binder": "B4", "binding signal": 0.361}
{"binder": "B5", "binding signal": 0.854}
{"binder": "B6", "binding signal": 0.714}
{"binder": "B7", "binding signal": 1.1}
{"binder": "B8", "binding signal": 1.38}
{"binder": "B9", "binding signal": 1.74}
{"binder": "B10", "binding signal": 0.484}
{"binder": "B11", "binding signal": 0.817}
{"binder": "B12", "binding signal": 1.59}
{"binder": "B13", "binding signal": 0.919}
{"binder": "B14", "binding signal": 0.903}
{"binder": "B15", "binding signal": 0.531}
{"binder": "B16", "binding signal": 0.272}
{"binder": "B17", "binding signal": 1.25}
{"binder": "B18", "binding signal": 0.673}
{"binder": "B19", "binding signal": 0.504}
{"binder": "B20", "binding signal": 0.323}
{"binder": "B21", "binding signal": 0.767}
{"binder": "B22", "binding signal": 0.52}
